Experimental data: patent US20160031967A1 (Affibody, published 2016)

Columns and labels:
[1] = target: T1, human PSMA (in house produced) (human, UniProt Q04609 44-750, limits assumed); assay: ELISA, pH 6.0 and pH 7.4
T1 construct: Biotinylated

[2] = target: T2, human FcRn: extracellular domain of human αFcRn in complex with human β2-microglobulin, soluble, produced in … (human, UniProt P55899 24-290; P16213 21-119); assay: ELISA, Z-ABD captured on anti-ABD, biotinylated human FcRn titrated, pH 6.0
T2 construct: Ig kappa leader cleaved upon secretion; Biotinylated for ELISA, amine coupled for Biacore; also called hFcRn; not shown: C-terminal GS-linker and FLAG tag; C-terminal GS-linker and His6 tag
Protocol: After washing as described above, 50 μl ImmunoPure TMB substrate (Thermo Scientific, cat. no. 34021) was added to the wells and the plates were treated according to the manufacturer's recommendations.

T1 sequence (Q04609 44-750 limits assumed): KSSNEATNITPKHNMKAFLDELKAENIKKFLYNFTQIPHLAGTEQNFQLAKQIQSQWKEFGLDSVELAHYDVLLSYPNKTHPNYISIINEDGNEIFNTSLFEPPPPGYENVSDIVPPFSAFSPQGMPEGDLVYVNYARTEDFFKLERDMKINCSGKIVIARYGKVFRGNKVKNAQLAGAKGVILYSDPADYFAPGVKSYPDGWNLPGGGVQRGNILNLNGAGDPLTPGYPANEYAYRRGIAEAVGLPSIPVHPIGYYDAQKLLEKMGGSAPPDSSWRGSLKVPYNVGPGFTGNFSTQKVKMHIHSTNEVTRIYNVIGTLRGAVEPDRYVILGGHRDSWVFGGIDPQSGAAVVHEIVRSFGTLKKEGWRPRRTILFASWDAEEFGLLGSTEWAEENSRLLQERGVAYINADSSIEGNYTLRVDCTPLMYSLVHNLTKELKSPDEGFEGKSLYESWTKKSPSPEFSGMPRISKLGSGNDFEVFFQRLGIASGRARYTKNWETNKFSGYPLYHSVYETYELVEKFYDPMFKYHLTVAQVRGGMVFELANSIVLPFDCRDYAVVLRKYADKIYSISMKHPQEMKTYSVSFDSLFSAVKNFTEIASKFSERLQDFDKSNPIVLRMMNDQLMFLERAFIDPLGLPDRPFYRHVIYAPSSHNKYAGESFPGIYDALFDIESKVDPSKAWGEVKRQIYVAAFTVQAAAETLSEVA

Binder	binding result [1]	Kd [2]
Z07909-ABD fusion (designed binder, domain: GA3; periplasmic Z-ABD fusion) AQHDEALEVDAKYAKERQEAAHEIRWLPNLTFDQRVAFIVKLLDDPSQSSELLSEAKKLNDSQAPKVDYVLAEAKVLANRELDKYGVSDYYKNLINNAKTVEGVKALIDEILAALPYVPG	no binding (tested: 2 µg/ml)	24.5 nM
Z10156-ABD fusion (designed binder, domain: GA3; periplasmic Z-ABD fusion) AQHDEALEVDAKYAKERTQASHEIRWLPNLTYDQRVAFINKLRDDPSQSSELLSEAKKLNDSQAPKVDYVLAEAKVLANRELDKYGVSDYYKNLINNAKTVEGVKALIDEILAALPYVPG	no binding (tested: 2 µg/ml)	21.3 nM
Z10145-ABD fusion (designed binder, domain: GA3; periplasmic Z-ABD fusion) AQHDEALEVDAKYAKENQDAAHEIRWLPNLTYDQRVAFIGKLNDDPSQSSELLSEAKKLNDSQAPKVDYVLAEAKVLANRELDKYGVSDYYKNLINNAKTVEGVKALIDEILAALPYVPG	no binding (tested: 2 µg/ml)	42 nM
Z10152-ABD fusion (designed binder, domain: GA3; periplasmic Z-ABD fusion) AQHDEALEVDAKYAKEEDVAAHEIRWLPNLTFNQRAAFIDKLLDDPSQSSELLSEAKKLNDSQAPKVDYVLAEAKVLANRELDKYGVSDYYKNLINNAKTVEGVKALIDEILAALPYVPG	no binding (tested: 2 µg/ml)	24.6 nM
Z10127-ABD fusion (designed binder, domain: GA3; periplasmic Z-ABD fusion) AQHDEALEVDAKYAKERKDAGHEIRWLPNLTFDQRSAFIKKLEDDPSQSSELLSEAKKLNDSQAPKVDYVLAEAKVLANRELDKYGVSDYYKNLINNAKTVEGVKALIDEILAALPYVPG	no binding (tested: 2 µg/ml)	21.3 nM

More lines, in order of falling Kd [2], values ahead:

binding result [1]	Kd [2]	Binder
no binding (tested: 2 µg/ml)	21.2 nM	Z10141-ABD fusion (designed binder, domain: GA3; periplasmic Z-ABD fusion) AQHDEALEVDAKYAKENQGAAHEIRWLPNLTWDQRVAFIRKLQDDPSQSSELLSEAKKLNDSQAPKVDYVLAEAKVLANRELDKYGVSDYYKNLINNAKTVEGVKALIDEILAALPYVPG
no binding (tested: 2 µg/ml)	17.6 nM	Z10129-ABD fusion (designed binder, domain: GA3; periplasmic Z-ABD fusion) AQHDEALEVDAKYAKEQHDAAHEIRWLPNLTYDQRVAFIRKLHDDPSQSSELLSEAKKLNDSQAPKVDYVLAEAKVLANRELDKYGVSDYYKNLINNAKTVEGVKALIDEILAALPYVPG
no binding (tested: 2 µg/ml)	11.4 nM	Z10111-ABD fusion (designed binder, domain: GA3; periplasmic Z-ABD fusion) AQHDEALEVDAKYAKEDDTAAHEIRWLPNLTYEQRWAFIHKLYDDPSQSSELLSEAKKLNDSQAPKVDYVLAEAKVLANRELDKYGVSDYYKNLINNAKTVEGVKALIDEILAALPYVPG
no binding (tested: 2 µg/ml)	10.4 nM	Z07930-ABD fusion (designed binder, domain: GA3; periplasmic Z-ABD fusion) AQHDEALEVDAKYAKESDSAVHEIRWLPNLTFDQRVAFIHKLLDDPSQSSELLSEAKKLNDSQAPKVDYVLAEAKVLANRELDKYGVSDYYKNLINNAKTVEGVKALIDEILAALPYVPG
no binding (tested: 2 µg/ml)	8.8 nM	Z10140-ABD fusion (designed binder, domain: GA3; periplasmic Z-ABD fusion) AQHDEALEVDAKYAKERSAAAHEIRWLPNLTFDQRVAFILKLTDDPSQSSELLSEAKKLNDSQAPKVDYVLAEAKVLANRELDKYGVSDYYKNLINNAKTVEGVKALIDEILAALPYVPG
no binding (tested: 2 µg/ml)	6 nM	Z07960-ABD fusion (designed binder, domain: GA3; periplasmic Z-ABD fusion) AQHDEALEVDAKYAKEFESAAHEIRWLPNLTYDQRVAFIHKLSDDPSQSSELLSEAKKLNDSQAPKVDYVLAEAKVLANRELDKYGVSDYYKNLINNAKTVEGVKALIDEILAALPYVPG
